From the supplement of paper PMC12217912
This is one part of the list. The full chains were built here from the parent and the listed change. Values near 0.05 are background.

B1: TEV protease; numbered along this chain (parent)
chain: MGESLFKGPRDYNPISSSICHLTNESDGHTTSLYGIGFGPFIITNKHLFRRNNGTLVVQSLHGVFKVKDTTTLQQHLVDGRDMIIIRMPKDFPPFPQKLKFREPQREERICLVTTNFQTKSMSSMVSDTSCTFPSGDGIFWKHWIQTKDGQCGSPLVSTRDGFIVGIHSASNFTNTNNYFTSVPKNFMELLTNQEAQQWVSGWRLNADSVLWGGHKVFMVKPEEPFQPVKEATQL

Variants of: B1
Test: raw area under fraction-flipped curve 0-4 h after induction (AUC4h, not background-subtracted), DNA-recorder readout of cleavage of the substrate (dimensionless); higher = more cleavage of the substrate by the protease variant
Conditions: temperature: 34 °C; time window: 0-4 h after rhamnose induction
Description: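 In vivo DNA recorder in E. coli TOP10(DE3) ΔrhaA at 34 °C. Each TEVp single-site mutant (parent TEVp 0) is paired with a single-site variant of the 7-mer TEVs (canonical ENLYFQ|S). The substrate sits between flexible linkers in a Bxb1-sfGFP-TEVs-SsrA fusion, so cleavage stabilises Bxb1 and speeds flipping of a recombination array, read by NGS. The value is the raw area under the fraction-flipped curve over 0-4 h after rhamnose induction (AUC4h), with ≥20 reads per time point. It is not background-subtracted; inactive controls average about 0.047.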
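Also: Bxb1 expression induced with 0.2% (w/v) L-rhamnose at OD600 near 0.5, cultures sampled hourly, flipped fraction per protease–substrate barcode pair counted by paired-end Illumina sequencing.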

Row | Variant | area with substrate ENAYFQS | area with substrate ENCYFQS | area with substrate ENEYFQS | area with substrate ENFYFQS | area with substrate ENGYFQS | area with substrate ENIYFQS | area with substrate ENNYFQS | area with substrate ENPYFQS | area with substrate ENRYFQS | area with substrate ENTYFQS | area with substrate ENVYFQS | area with substrate ENWYFQS | area with substrate ENYYFQS | area with substrate ENMYFQS | area with substrate ENDYFQS | area with substrate ENKYFQS | area with substrate ENQYFQS | area with substrate ENSYFQS | area with substrate ENHYFQS
1 | S124H | 0.0475 | 0.067 | 0.0526 | 0.0646 | 0.0426 | 0.129 | 0.0574 | 0.0653 | 0.0821 | 0.0778 | 0.0812 | 0 | 0.0437 |  |  |  |  |  | 
2 | S124N | 0.068 |  | 0.0614 |  |  |  |  | 0.0586 |  |  |  | 0.0334 |  | 0.0614 |  |  |  |  | 
3 | F117C | 0.0641 | 0.0699 | 0.0654 | 0.0608 |  |  | 0.0636 | 0.055 | 0.0721 | 0.0602 | 0.0715 | 0.0114 | 0.0607 | 0.0719 | 0.0637 | 0.0777 | 0.0723 | 0.0625 | 
4 | F117A | 0.0615 |  | 0.064 | 0.0758 | 0.096 |  | 0.052 |  | 0.0557 |  | 0.0785 |  |  |  |  |  |  |  | 0.0623
5 | F117S | 0.0729 | 0.0551 | 0.0717 |  | 0.0672 | 0.124 | 0.0433 | 0.0419 |  | 0.0541 |  |  | 0.051 | 0.0795 | 0.063 |  |  | 0.0547 | 0.0529
6 | I110L | 0.0627 | 0.0668 |  | 0.0446 | 0.0525 | 0.124 | 0.0707 | 0.0062 | 0.072 | 0.054 | 0.08 |  |  |  | 0.0375 | 0.0654 | 0.0533 | 0.0637 | 0.0509
7 | I110Y | 0.0361 |  |  |  | 0.0464 |  |  |  |  |  | 0.0622 |  |  |  | 0.067 | 0.0766 | 0.0372 |  | 
8 | T114E | 0.089 |  | 0.0625 |  | 0.07 |  | 0.0563 |  | 0.0546 |  |  | 0.0508 |  |  | 0.0669 | 0.0606 | 0.0587 | 0.0612 | 0.0633
9 | R106Y | 0.0662 | 0.0724 | 0.0816 | 0.0634 | 0.071 |  | 0.0597 | 0.0678 | 0.0535 | 0.0694 | 0.089 | 0.0496 | 0.0577 |  | 0.0585 |  | 0.0592 | 0.0559 | 0.0483
10 | Q105S | 0.0662 |  |  | 0.0713 |  | 0.102 |  |  |  |  | 0.086 | 0.0549 |  | 0.0846 | 0.0602 | 0.0581 | 0.0519 | 0.0551 | 
11 | E107P | 0.0804 |  | 0.0575 |  |  |  | 0.0711 | 0.068 | 0.0438 |  | 0.0727 | 0.0592 | 0.0705 |  |  | 0.0464 | 0.0586 | 0.116 | 
12 | E107R | 0.0726 | 0.0744 | 0.0499 | 0.0557 |  | 0.0841 | 0.0516 | 0.0575 |  | 0.0778 | 0.0646 |  | 0.0337 | 0.0755 | 0.0508 |  | 0.0741 | 0.0674 | 0.0741
13 | S123C | 0.056 | 0.0578 | 0.0418 |  | 0.0622 | 0.115 | 0.0611 |  | 0.0657 |  |  | 0.0106 |  | 0.0846 | 0.0655 | 0.0619 |  | 0.0991 | 0.0592
14 | S123R | 0.058 | 0.086 | 0.0511 |  | 0.0576 | 0.12 | 0.0632 | 0.0329 | 0.0751 |  |  |  | 0.0752 | 0.0782 | 0.0546 | 0.0536 | 0.0499 |  | 0.0675
15 | S123Y | 0.0624 |  | 0.0594 |  |  |  | 0.0663 |  |  | 0.0459 | 0.0718 | 0.0534 | 0.0663 |  | 0.054 | 0.0676 | 0.0608 |  | 
16 | R109V | 0.0615 | 0.0551 | 0.0622 |  | 0.0658 |  | 0.0554 |  | 0.0537 | 0.0806 | 0.0779 |  | 0.0408 | 0.0774 | 0.068 | 0.063 | 0.0586 |  | 
17 | C111P | 0.0455 | 0.0472 |  |  | 0.0571 | 0.0443 |  |  | 0.0294 |  |  |  |  | 0.0524 | 0.0558 |  | 0.0593 |  | 0.0663
18 | K120S | 0.0619 | 0.0699 | 0.0578 | 0.0446 | 0.0492 | 0.111 | 0.0774 | 0.0483 | 0.0619 | 0.0698 | 0.0925 | 0.0567 |  |  | 0.0645 |  | 0.0624 | 0.0616 | 
19 | T119V | 0.0616 | 0.0629 | 0.0557 |  |  |  | 0.0719 | 0.0649 | 0.066 |  | 0.0756 | 0.0098 |  | 0.0834 | 0.0576 |  |  | 0.0664 | 
20 | T119D | 0.0644 | 0.0763 |  |  | 0.0575 |  |  | 0.069 |  |  | 0.0729 | 0.0539 |  | 0.0858 | 0.0695 |  | 0.0526 | 0.068 | 0.0362
21 | V113R | 0.0619 | 0.0537 |  | 0.0486 | 0.0668 | 0.0667 | 0.0638 | 0.0629 | 0.0482 | 0.0581 | 0.063 | 0.0737 |  | 0.0648 | 0.0652 | 0.0535 | 0.0577 | 0.0541 | 0.0362
22 | V113I | 0.0608 | 0.0435 | 0.0702 | 0.0573 |  |  | 0.0662 | 0.0809 |  |  | 0.0428 | 0.052 | 0.0534 |  | 0.0423 |  |  | 0.0585 | 
23 | T115A | 0.0648 |  | 0.0696 |  | 0.0581 |  |  |  |  | 0.0597 |  |  |  |  | 0.0575 |  |  |  | 0.0445
24 | T115L | 0.0552 | 0.0653 | 0.0682 |  | 0.0547 | 0.113 | 0.0628 |  | 0.0616 |  | 0.0764 | 0.0583 |  |  | 0.0582 |  | 0.0639 | 0.0494 | 0.0635
25 | M125C | 0.057 |  | 0.059 | 0.0697 |  |  | 0.0686 | 0.0615 | 0.0578 | 0.0502 | 0.0689 |  | 0.0553 | 0.0482 | 0.0653 |  | 0.0521 | 0.0446 | 0.0652
26 | M125A | 0.0529 | 0.0865 | 0.0541 | 0.0424 |  | 0.125 | 0.064 |  |  |  | 0.0676 |  | 0.0531 |  | 0.0677 |  | 0.0574 | 0.0698 | 
27 | Q118I | 0.0434 | 0.0703 | 0.0651 | 0.0623 | 0.0661 | 0.121 | 0.0563 |  | 0.0736 |  |  | 0.0768 |  | 0.0793 | 0.0545 |  |  | 0.0555 | 
28 | Q118P | 0.0604 |  | 0.0519 |  | 0.0753 | 0.104 | 0.0516 |  |  |  |  |  | 0.0616 | 0.0775 | 0.0432 |  | 0.0601 |  | 0.0609
29 | Q118D | 0.0536 | 0.0744 |  |  |  |  | 0.0928 |  | 0.0567 |  | 0.0813 |  | 0.0638 |  | 0.085 | 0.0737 | 0.0623 | 0.0673 | 0.0717
